Reference: publication PMC3391236
Where two headings read alike, the source gives them in different places. No constants are given. Whether binding was seen depends on the method and setting. Binding seen in cells or lysates may run through a third protein. Some results given as binding are weak or reduced against the parent protein; the word gives no strength.

By UniProt entry, the sequences of proteins in these tests, tags left out. Where a name states a change or a piece, a line headed by the entry shows the natural chain unless it says otherwise. Residues count along the entry.
UniProt P12980: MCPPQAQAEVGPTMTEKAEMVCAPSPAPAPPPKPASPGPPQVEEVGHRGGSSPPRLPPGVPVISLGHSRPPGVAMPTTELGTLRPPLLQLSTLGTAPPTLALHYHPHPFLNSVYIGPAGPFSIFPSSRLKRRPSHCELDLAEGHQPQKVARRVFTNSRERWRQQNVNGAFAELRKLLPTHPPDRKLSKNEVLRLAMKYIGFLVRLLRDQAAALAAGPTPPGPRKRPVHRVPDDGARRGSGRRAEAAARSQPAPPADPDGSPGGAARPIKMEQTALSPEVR
GST-LYL1 bHLH: residues 114-221 of P12980

Tests used:
[1] = target: TAL1 (human) (UniProt P17542); assay: co-IP; 293T cells cotransfected with expression vectors (TAL1, Flag- or HA-LYL1, E47, HA-LMO2, GATA2 in combinations); lysis in 10 mM Tris-HCl pH 7.5, 150 mM NaCl, 0.1% Triton X100; 600 ug whole cell extract with anti-TAL1 mAb on GammaBind G sepharose, anti-Flag-M2 affinity gel or anti-HA agarose, 4 h at 4°C; washed with NET-2 buffer; immunoblot
[2] = target: LYL1 tagged with Flag or HA (human) (UniProt P12980); assay: as above
[3] = target: GST-LYL1 bHLH (human) (UniProt P12980); assay: pull-down; bacterially expressed GST fusion proteins (bHLH domains) on glutathione-Sepharose beads incubated with [35S]-methionine-labeled in vitro-translated TAL1 or LYL1; SDS-PAGE and autoradiography; only the target purified
[4] = target: GST-TAL1 bHLH (human) (UniProt P17542); assay: as above
[5] = target: LYL1 tagged with Flag or HA (human) (UniProt P12980); assay: co-IP; 293T cells cotransfected with expression vectors (TAL1, Flag- or HA-LYL1, E47, HA-LMO2, GATA2 in combinations); lysis in 10 mM Tris-HCl pH 7.5, 150 mM NaCl, 0.1% Triton X100; 600 ug whole cell extract with anti-TAL1 mAb on GammaBind G sepharose, anti-Flag-M2 affinity gel or anti-HA agarose, 4 h at 4°C; washed with NET-2 buffer; immunoblot; remark: listed apart in the source

| binding [2] | binding [3] | binding [4] | Molecule | other results |
| --- | --- | --- | --- | --- |
| binds | – | – | LYL1 tagged with Flag or HA (from UniProt P12980 1-280) | binding [1]: binds |
| binds | – | – | TAL1 (from UniProt P17542 1-331) | – |
| – | binds | no binding | in vitro-translated LYL1 (from UniProt P12980 1-280) | – |
| – | no binding | no binding | in vitro-translated TAL1 (from UniProt P17542 1-331) | – |
| – | – | – | E47 (protein, UniProt P15923-2 1-651) MNQPQRMAPVGTDKELSDLLDFSMMFPLPVTNGKGRPASLAGAQFGGSGLEDRPSSGSWGSGDQSSSSFDPSRTFSEGTHFTESHSSLSSSTFLGPGLGGKSGERGAYASFGRDAGVGGLTQAGFLSGELALNSPGPLSPSGMKGTSQYYPSYSGSSRRRAADGSLDTQPKKVRKVPPGLPSSVYPPSSGEDYGRDATAYPSAKTPSSTYPAPFYVADGSLHPSAELWSPPGQAGFGPMLGGGSSPLPLPPGSGPVGSSGSSSTFGGLHQHERMGYQLHGAEVNGGLPSASSFSSAPGATYGGVSSHTPPVSGADSLLGSRGTTAGSSGDALGKALASIYSPDHSSNNFSSSPSTPVGSPQGLAGTSQWPRAGAPGALSPSYDGGLHGLQSKIEDHLDEAIHVLRSHAVGTAGDMHTLLPGHGALASGFTGPMSLGGRHAGLVGGSHPEDGLAGSTSLMHNHAALPSQPGTLPDLSRPPDSYSGLGRAGATAAASEIKREEKEDEENTSAADHSEEEKKELKAPRARTSSTDEVLSLEEKDLRDRERRMANNARERVRVRDINEAFRELGRMCQMHLKSDKAQTKLLILQQAVQVILGLEQQVRERNLNPKAACLKRREEEKVSGVVGDPQMVLSAPHPGLSEAHNPAGHM | binding [5]: binds weakly |
